Experimental data reported in the supplement of paper PMC11876631.
± gives the standard deviation of the averaged measurements. Laboratory Escherichia coli strains with one amino-acid change in an essential protein, pooled on minimal glucose agar with carbenicillin or gentamicin at twice the control MIC (plus kanamycin and chloramphenicol for the plasmids), 48 h. Fold change of barcode share against drug-free plates; higher = less susceptible. Active = above 20 in both replicates (the paper's putatively resistant). '<' = one read or none on drug, '>' = one read or none on a drug-free plate. Shares are relative, so most strains fall below 1 when a few take over. Listed are strains with at least 15 reads on both drug-free plates, and hits; most hits rest on fewer reference reads. Replicate rank correlation about 0.5. Edits are read from barcodes.

B1: pgsA; numbered along this chain (parent)
chain: MQFNIPTLLTLFRVILIPFFVLVFYLPVTWSPFAAALIFCVAAVTDWFDGFLARRWNQSTRFGAFLDPVADKVLVAIAMVLVTEHYHSWWVTLPAATMIAREIIISALREWMAELGKRSSVAVSWIGKVKTTAQMVALAWLLWRPNIWVEYAGIALFFVAAVLTLWSMLQYLSAARADLLDQ
B2: yidC; numbered along this chain (parent)
chain: MDSQRNLLVIALLFVSFMIWQAWEQDKNPQPQAQQTTQTTTTAAGSAADQGVPASGQGKLISVKTDVLDLTINTRGGDVEQALLPAYPKELNSTQPFQLLETSPQFIYQAQSGLTGRDGPDNPANGPRPLYNVEKDAYVLAEGQNELQVPMTYTDAAGNTFTKTFVLKRGDYAVNVNYNVQNAGEKPLEISSFGQLKQSITLPPHLDTGSSNFALHTFRGAAYSTPDEKYEKYKFDTIADNENLNISSKGGWVAMLQQYFATAWIPHNDGTNNFYTANLGNGIAAIGYKSQPVLVQPGQTGAMNSTLWVGPEIQDKMAAVAPHLDLTVDYGWLWFISQPLFKLLKWIHSFVGNWGFSIIIITFIVRGIMYPLTKAQYTSMAKMRMLQPKIQAMRERLGDDKQRISQEMMALYKAEKVNPLGGCFPLLIQMPIFLALYYMLMGSVELRQAPFALWIHDLSAQDPYYILPILMGVTMFFIQKMSPTTVTDPMQQKIMTFMPVIFTVFFLWFPSGLVLYYIVSNLVTIIQQQLIYRGLEKRGLHSREKKKS
B3: metG; numbered along this chain (parent)
chain: MTQVAKKILVTCALPYANGSIHLGHMLEHIQADVWVRYQRMRGHEVNFICADDAHGTPIMLKAQQLGITPEQMIGEMSQEHQTDFAGFNISYDNYHSTHSEENRQLSELIYSRLKENGFIKNRTISQLYDPEKGMFLPDRFVKGTCPKCKSPDQYGDNCEVCGATYSPTELIEPKSVVSGATPVMRDSEHFFFDLPSFSEMLQAWTRSGALQEQVANKMQEWFESGLQQWDISRDAPYFGFEIPNAPGKYFYVWLDAPIGYMGSFKNLCDKRGDSVSFDEYWKKDSTAELYHFIGKDIVYFHSLFWPAMLEGSNFRKPSNLFVHGYVTVNGAKMSKSRGTFIKASTWLNHFDADSLRYYYTAKLSSRIDDIDLNLEDFVQRVNADIVNKVVNLASRNAGFINKRFDGVLASELADPQLYKTFTDAAEVIGEAWESREFGKAVREIMALADLANRYVDEQAPWVVAKQEGRDADLQAICSMGINLFRVLMTYLKPVLPKLTERAEAFLNTELTWDGIQQPLLGHKVNPFKALYNRIDMRQVEALVEASKEEVKAAAAPVTGPLADDPIQETITFDDFAKVDLRVALIENAEFVEGSDKLLRLTLDLGGEKRNVFSGIRSAYPDPQALIGRHTIMVANLAPRKMRFGISEGMVMAAGPGGKDIFLLSPDAGAKPGHQVK
B4: argE; a variant is named by its letters at X, in order (parent)
chain: MKNKLPPFIEIYRALIATPSISATEEALDQSNADLITLXADWFKDLGFNVEVQPVPGTRNKFNMLASIGQGAGGLLLAGHTDTVPFDDGRWTRDPFTLTEHDGKLYGLGTADMKGFFAFILDALRDVDVTKLKKPLYILATADEETSMAGARYFAETTALRPDCAIXGEPTSLQPVRAHKGHISNAIRIQGQSGHSSDPARGVNAIELMHDAIGHILQLRDNLKERYHYEAFTVPYPTLNLGHIHGGDASNRICACCELHMDIRPLPGMTLNELNGLLNDALAPVSERWPGRLTVDELHPPIPGYECPPNHQLXEVXEKLLGAKTEVXNYCTEAPFIQTLCPTLVLGPGSINQAHQPDEYLETRFIKPTRELITQVIHHFCWH

Variants of: B1
Assay: barcode share on antibiotic plates over drug-free plates; higher = less susceptible
Conditions: with Escherichia coli (laboratory strain); antibiotic: carbenicillin; 2× MIC (3.1 µg/mL)
Procedure: (§1)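 A pool of E. coli strains, each edited to carry one amino-acid change in an essential protein, was grown for 48 h on minimal glucose agar with or without antibiotic; strain barcodes were sequenced; mean of two replicates.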
In the case of V41Q, the “fold change of barcode share” value is reported as 0.351 ± 0.15.
With V41A the “fold change of barcode share” value was 0.349 ± 0.097.
With V41W the “fold change of barcode share” value was 0.288 ± 0.022.
With F39W the “fold change of barcode share” value was 0.282 ± 0.045.

Same assay, conditions: with Escherichia coli (laboratory strain); antibiotic: gentamicin; 2× MIC (MIC 0.45 µg/mL)
V41Q was tested, and the “fold change of barcode share” value was 0.67 ± 0.94.
With V41A the “fold change of barcode share” value was < 0.00505.
In the case of V41W, the “fold change of barcode share” value is reported as 0.0794 ± 0.11.
In the case of F39W, the “fold change of barcode share” value is reported as 0.0873 ± 0.042.

Variants of: B2
Assay: as above
Conditions: with Escherichia coli (laboratory strain); antibiotic: carbenicillin; 2× MIC (3.1 µg/mL)
Procedure: as §1
I364Q was tested, and the “fold change of barcode share” value was 0.275 ± 0.21.
In the case of I364W, the “fold change of barcode share” value is reported as 0.273 ± 0.026.
For I364D, the “fold change of barcode share” value was 0.16 ± 0.067.
For I364A, the “fold change of barcode share” value was 0.342 ± 0.19.
In the case of W308A, the “fold change of barcode share” value is reported as 0.352 ± 0.091.
W308D was tested, and the “fold change of barcode share” value was 0.368 ± 0.053.
W308P was tested, and the “fold change of barcode share” value was 0.372 ± 0.036.
With W308Q the “fold change of barcode share” value was 0.331 ± 0.062.
In the case of V253P, the “fold change of barcode share” value is reported as 1.29 ± 1.4.
In the case of V253A, the “fold change of barcode share” value is reported as 0.314 ± 0.0084.
With V253D the “fold change of barcode share” value was 0.48 ± 0.14.
In the case of L440Q, the “fold change of barcode share” value is reported as 0.29 ± 0.063.
In the case of L440P, the “fold change of barcode share” value is reported as 0.218 ± 0.093.
L436W was tested, and the “fold change of barcode share” value was 0.29 ± 0.075.
M471A was tested, and the “fold change of barcode share” value was 0.231 ± 0.065.
In the case of M471D, the “fold change of barcode share” value is reported as 0.349 ± 0.0077.
For M471Q, the “fold change of barcode share” value was 0.288 ± 0.038.
With M471P the “fold change of barcode share” value was 0.397 ± 0.009.
For M471W, the “fold change of barcode share” value was 0.316 ± 0.2.
In the case of V523A, the “fold change of barcode share” value is reported as 0.25 ± 0.076.
With V523W the “fold change of barcode share” value was 0.0731 ± 0.054.
In the case of V523P, the “fold change of barcode share” value is reported as 0.288 ± 0.24.
With V523D the “fold change of barcode share” value was 0.402 ± 0.049.
V523Q was tested, and the “fold change of barcode share” value was 0.387 ± 0.03.

Same assay, conditions: with Escherichia coli (laboratory strain); antibiotic: gentamicin; 2× MIC (MIC 0.45 µg/mL)
For I364Q, the “fold change of barcode share” value was < 0.0057.
In the case of I364W, the “fold change of barcode share” value is reported as < 0.00661.
I364D was tested, and the “fold change of barcode share” value was < 0.00766.
With I364A the “fold change of barcode share” value was < 0.00507.
In the case of W308A, the “fold change of barcode share” value is reported as 0.00573 ± 0.006.
With W308D the “fold change of barcode share” value was 0.00302 ± 0.003.
For W308P, the “fold change of barcode share” value was 0.0032 ± 0.0017.
In the case of W308Q, the “fold change of barcode share” value is reported as 0.00407 ± 0.0039.
With I361D the “fold change of barcode share” value was < 0.013.
In the case of I361W, the “fold change of barcode share” value is reported as < 0.0175.
With I361Q the “fold change of barcode share” value was < 0.0144.
With V253P the “fold change of barcode share” value was < 0.00442.
V253A was tested, and the “fold change of barcode share” value was 0.00634 ± 0.0043.
For V253D, the “fold change of barcode share” value was < 0.00822.
For L440Q, the “fold change of barcode share” value was 0.0117 ± 0.012.
For L440P, the “fold change of barcode share” value was < 0.0103.
For W346Q, the “fold change of barcode share” value was 0.00614 ± 0.0059.
For L436W, the “fold change of barcode share” value was < 0.0115.
For M471A, the “fold change of barcode share” value was 0.00614 ± 0.0055.
In the case of M471D, the “fold change of barcode share” value is reported as 0.00204 ± 0.00091.
For M471Q, the “fold change of barcode share” value was 0.00503 ± 0.0038.
In the case of M471P, the “fold change of barcode share” value is reported as 0.00946 ± 0.004.
In the case of M471W, the “fold change of barcode share” value is reported as 0.00449 ± 0.0011.
In the case of V523A, the “fold change of barcode share” value is reported as < 0.00739.
In the case of V523D, the “fold change of barcode share” value is reported as < 0.0166.
With V523Q the “fold change of barcode share” value was < 0.0153.

Variants of: B3
Assay: as above
Conditions: with Escherichia coli (laboratory strain); antibiotic: carbenicillin; 2× MIC (3.1 µg/mL)
Procedure: as §1
V323A was tested, and the “fold change of barcode share” value was 0.302 ± 0.042.
For V323Q, the “fold change of barcode share” value was 1.24 ± 0.27.
V323P was tested, and the “fold change of barcode share” value was 0.556 ± 0.097.
W35Q was tested, and the “fold change of barcode share” value was 0.333 ± 0.019.
With W35A the “fold change of barcode share” value was 0.371 ± 0.22.
With W306Q the “fold change of barcode share” value was 9.85 ± 0.4.
W306A was tested, and the “fold change of barcode share” value was 2.34 ± 0.96.
With L496D the “fold change of barcode share” value was 0.3 ± 0.025.
For L496W, the “fold change of barcode share” value was 0.416 ± 0.14.
For L496Q, the “fold change of barcode share” value was 0.324 ± 0.2.
In the case of M219A, the “fold change of barcode share” value is reported as 0.414 ± 0.13.
M219D was tested, and the “fold change of barcode share” value was 0.247 ± 0.17.
In the case of M219P, the “fold change of barcode share” value is reported as 0.536 ± 0.26.
M219Q was tested, and the “fold change of barcode share” value was 0.40937 ± 0.0002.
In the case of L27A, the “fold change of barcode share” value is reported as 0.133 ± 0.039.
For L27Q, the “fold change of barcode share” value was 0.284 ± 0.0087.
For V382Q, the “fold change of barcode share” value was 0.178 ± 0.062.
With F485A the “fold change of barcode share” value was 0.246 ± 0.077.
In the case of F485D, the “fold change of barcode share” value is reported as 0.554 ± 0.37.
In the case of F485W, the “fold change of barcode share” value is reported as 0.126 ± 0.028.
For F485Q, the “fold change of barcode share” value was 0.361 ± 0.064.

Same assay, conditions: with Escherichia coli (laboratory strain); antibiotic: gentamicin; 2× MIC (MIC 0.45 µg/mL)
V323A was tested, and the “fold change of barcode share” value was < 0.0042.
In the case of V323Q, the “fold change of barcode share” value is reported as 0.0244 ± 0.013.
In the case of V323P, the “fold change of barcode share” value is reported as < 0.0116.
W35Q was tested, and the “fold change of barcode share” value was < 0.01.
W35A was tested, and the “fold change of barcode share” value was < 0.00515.
For L496D, the “fold change of barcode share” value was < 0.0141.
With L496W the “fold change of barcode share” value was < 0.0138.
For L496Q, the “fold change of barcode share” value was < 0.0105.
With M219A the “fold change of barcode share” value was < 0.00708.
With M219D the “fold change of barcode share” value was < 0.00676.
With M219P the “fold change of barcode share” value was 0.0136 ± 0.0026.
With M219Q the “fold change of barcode share” value was 0.549 ± 0.77.
For L27A, the “fold change of barcode share” value was 0.0181 ± 0.0027.
With L27Q the “fold change of barcode share” value was < 0.0101.
V382Q was tested, and the “fold change of barcode share” value was 0.0267 ± 0.018.
For F485A, the “fold change of barcode share” value was < 0.00609.
With F485D the “fold change of barcode share” value was < 0.00308.
With F485W the “fold change of barcode share” value was < 0.00615.
For F485Q, the “fold change of barcode share” value was < 0.00498.

Variants of: B4
Assay: as above
Conditions: with Escherichia coli (laboratory strain); antibiotic: gentamicin; 2× MIC (MIC 0.45 µg/mL)
Procedure: as §1
With LIWVV the “fold change of barcode share” value was 0.00928 ± 0.0044.
For LIAVV, the “fold change of barcode share” value was < 0.00987.
For LIDVV, the “fold change of barcode share” value was < 0.00697.
With LIPVV the “fold change of barcode share” value was 0.00992 ± 0.0015.
In the case of LIVWV, the “fold change of barcode share” value is reported as < 0.00747.
In the case of PIVVV, the “fold change of barcode share” value is reported as 0.00678 ± 0.0046.

Same assay, conditions: with Escherichia coli (laboratory strain); antibiotic: carbenicillin; 2× MIC (3.1 µg/mL)
For LDVVV, the “fold change of barcode share” value was > 28.4 [active].
With LIVWV the “fold change of barcode share” value was 0.17 ± 0.14.
In the case of PIVVV, the “fold change of barcode share” value is reported as 0.444 ± 0.31.
